Results published in the supplement of paper PMC8728848.
The other results are listed elsewhere or left out.

Experiments:
Assay in all cases: glycan array binding signal (z-score within array); higher = stronger binding
Conditions in all cases: glycan notation: IUPAC condensed, linker removed
[1] = target: Fuc(a1-2)[Gal(a1-3)]Gal(b1-4)GlcNAc(b1-2)Man(a1-3)[Fuc(a1-2)[Gal(a1-3)]Gal(b1-4)GlcNAc(b1-2)Man(a1-6)]Man(b1-4)GlcNAc(b1-4)GlcNAc
Method in brief: (§1)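 Columns mapping to the same glycan were averaged after glycan names were converted to IUPAC-condensed notation. The data come from 3228 arrays in the Consortium for Functional Glycomics database, limited to those with an available protein sequence. Binding is reported as a within-array Z-score averaged across arrays of one protein sequence and across linkers.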

[2] = target: Fuc(a1-2)[Gal(a1-3)]Gal(b1-4)[Fuc(a1-3)]GlcNAc
Method in brief: as §1

[3] = target: Fuc(a1-2)[Gal(a1-4)]Gal(b1-4)GlcNAc
Method in brief: as §1

[4] = target: Fuc(a1-2)[GalNAc(a1-3)]Gal
Method in brief: as §1

[5] = target: Fuc(a1-2)[GalNAc(a1-3)]Gal(b1-3)GlcNAc
Method in brief: as §1

[6] = target: Fuc(a1-2)[GalNAc(a1-3)]Gal(b1-3)GlcNAc(b1-2)Man(a1-3)[Fuc(a1-2)[GalNAc(a1-3)]Gal(b1-3)GlcNAc(b1-2)Man(a1-6)]Man(b1-4)GlcNAc(b1-4)GlcNAc
Method in brief: as §1

[7] = target: Fuc(a1-2)[GalNAc(a1-3)]Gal(b1-4)Glc
Method in brief: as §1

[8] = target: Fuc(a1-2)[GalNAc(a1-3)]Gal(b1-4)GlcNAc
Method in brief: as §1

[9] = target: Fuc(a1-2)[GalNAc(a1-3)]Gal(b1-4)GlcNAc(b1-2)Man(a1-3)[GalNAc(a1-3)[Fuc(a1-2)]Gal(b1-4)GlcNAc(b1-2)Man(a1-6)]Man(b1-4)GlcNAc(b1-4)GlcNAc
Method in brief: as §1

[10] = target: Fuc(a1-2)[GalNAc(a1-3)]Gal(b1-4)GlcNAc(b1-3)Gal(b1-4)GlcNAc
Method in brief: as §1

[11] = target: Fuc(a1-2)[GalNAc(a1-3)]Gal(b1-4)GlcNAc(b1-3)Gal(b1-4)GlcNAc(b1-3)Gal(b1-4)GlcNAc
Method in brief: as §1

[12] = target: Fuc(a1-2)[GalNAc(a1-3)]Gal(b1-4)[Fuc(a1-3)]GlcNAc
Method in brief: as §1

[13] = target: Fuc(a1-2)[GalNAc(a1-4)]Gal(b1-4)GlcNAc
Method in brief: as §1

[14] = target: Fuc(a1-2)[GalNAc(b1-3)]Gal
Method in brief: as §1

Fuc(a1-3)GlcNAc = target: Fuc(a1-3)GlcNAc
Method in brief: as §1

[15] = target: Fuc(a1-3)[Gal(b1-4)]Glc6S
Method in brief: as §1

[16] = target: Fuc(a1-3)[Gal(b1-4)]GlcNAc
Method in brief: as §1

[17] = target: Fuc(a1-3)[Gal(b1-4)]GlcNAc(b1-2)Man(a1-3)[Fuc(a1-3)[Gal(b1-4)]GlcNAc(b1-2)Man(a1-6)]Man(b1-4)GlcNAc(b1-4)GlcNAc
Method in brief: as §1

[18] = target: Fuc(a1-3)[Gal(b1-4)]GlcNAc(b1-2)Man(a1-6)[Gal(b1-4)GlcNAc(b1-2)Man(a1-3)]Man(b1-4)GlcNAc(b1-4)GlcNAc
Method in brief: as §1

[19] = target: Fuc(a1-3)[Gal(b1-4)]GlcNAc(b1-3)Gal(b1-3)[Fuc(a1-4)]GlcNAc
Method in brief: as §1

[20] = target: Fuc(a1-3)[Gal(b1-4)]GlcNAc(b1-4)Gal(b1-4)[Fuc(a1-3)]GlcNAc
Method in brief: as §1

[21] = target: Fuc(a1-3)[Gal(b1-4)]GlcNAc(b1-4)Gal(b1-4)[Fuc(a1-3)]GlcNAc(b1-4)Gal(b1-4)[Fuc(a1-3)]GlcNAc
Method in brief: as §1

[22] = target: Fuc(a1-3)[Gal(b1-4)]GlcNAc6S
Method in brief: as §1

[23] = target: Fuc(a1-3)[Gal3S(b1-4)]Glc6S
Method in brief: as §1

[24] = target: Fuc(a1-3)[Gal3S(b1-4)]GlcNAc
Method in brief: as §1

[25] = target: Fuc(a1-3)[Gal3S(b1-4)]GlcNAc6S
Method in brief: as §1

[26] = target: Fuc(a1-3)[GalNAc(b1-4)]GlcNAc
Method in brief: as §1

[27] = target: Fuc(a1-3)[Neu5Ac(a2-3)]Gal(b1-4)GlcNAc(b1-3)GalNAc
Method in brief: as §1

Fuc(a1-4)GlcNAc = target: Fuc(a1-4)GlcNAc
Method in brief: as §1

Fuc(b1-3)GlcNAc = target: Fuc(b1-3)GlcNAc
Method in brief: as §1

B1: GALT1 615 (Arabidopsis thaliana), Q8L7F9 (protein)
chain: DPMRGSHHHHHHGMASMTGGQQMGRDLYDDDDKSRLQKPYITAAASVVVTPNTTLPMEWLRITLPDFMKEARNTQEAISGDDIAVVSGLFVEQNVSKEEREPLLTWNRLESLVDNAQSLVNGVDAIKEAGIVWESLVSAVEAKKLVDVNENQTRKGKEELCPQFLSKMNATEADGSSLKLQIPCGLTQGSSITVIGIPDGLVGSFRIDLTGQPLPGEPDPPIIVHYNVRLLGDKSTEDPVIVQNSWTASQDWGAEERCPKFDPDMNKKVDDLDECNKMVGGEINRTSSTSLQSNTSRGVPVAREASKHEKYFPFKQGFLSVATLRVGTEGMQMTVDGKHITSFAFRDTLEPWLVSEIRITGDFRLISILA
[1]
  glycan array binding signal (z-score): -0.253
[2]
  glycan array binding signal (z-score): -0.041
[3]
  glycan array binding signal (z-score): -0.333
[4]
  glycan array binding signal (z-score): -0.453
[5]
  glycan array binding signal (z-score): 1.44
[6]
  glycan array binding signal (z-score): -0.131
[7]
  glycan array binding signal (z-score): -0.391
[8]
  glycan array binding signal (z-score): -0.498
[9]
  glycan array binding signal (z-score): -0.299
[10]
  glycan array binding signal (z-score): -0.268
[11]
  glycan array binding signal (z-score): 1.05
[12]
  glycan array binding signal (z-score): 1.82
[13]
  glycan array binding signal (z-score): -0.082
[14]
  glycan array binding signal (z-score): 0.037
Fuc(a1-3)GlcNAc
  glycan array binding signal (z-score): -0.157
[15]
  glycan array binding signal (z-score): -0.255
[16]
  glycan array binding signal (z-score): 0.124
[17]
  glycan array binding signal (z-score): -0.143
[18]
  glycan array binding signal (z-score): -0.094
[19]
  glycan array binding signal (z-score): -0.081
[20]
  glycan array binding signal (z-score): -0.264
[21]
  glycan array binding signal (z-score): -0.386
[22]
  glycan array binding signal (z-score): 0.289
[23]
  glycan array binding signal (z-score): -0.547
[24]
  glycan array binding signal (z-score): 1.02
[25]
  glycan array binding signal (z-score): -0.483
[26]
  glycan array binding signal (z-score): -0.421
[27]
  glycan array binding signal (z-score): 0.079
Fuc(a1-4)GlcNAc
  glycan array binding signal (z-score): -0.287
Fuc(b1-3)GlcNAc
  glycan array binding signal (z-score): -0.443
